This is one part of the list.
How the values were obtained:
Assay in all cases: glycan array binding signal (z-score within array); higher = stronger binding
Conditions in all cases: glycan notation: IUPAC condensed, linker removed
[1] = target: Gal(b1-3)GlcNAc(b1-6)[Gal(b1-3)]GalNAc
Outline: (§1)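 Glycan array binding is given as a within-array Z-score, which can be read as non-binding when negative. The arrays, 3228 of them, came from the Consortium for Functional Glycomics database and were retained only where the protein sequence was available. Z-scores were averaged across arrays of the same protein sequence at different concentrations or buffers and across linkers.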

Gal(b1-3)GlcNAc6S = target: Gal(b1-3)GlcNAc6S
Outline: as §1

[2] = target: Gal(b1-3)[Fuc(a1-4)]GlcNAc
Outline: as §1

[3] = target: Gal(b1-3)[Fuc(a1-4)]GlcNAc(b1-2)Man
Outline: as §1

[4] = target: Gal(b1-3)[Fuc(a1-4)]GlcNAc(b1-2)Man(a1-3)[Gal(b1-3)[Fuc(a1-4)]GlcNAc(b1-2)Man(a1-6)]Man(b1-4)GlcNAc(b1-4)[Fuc(a1-6)]GlcNAc
Outline: as §1

[5] = target: Gal(b1-3)[Fuc(a1-4)]GlcNAc(b1-3)Gal(b1-3)[Fuc(a1-4)]GlcNAc
Outline: as §1

[6] = target: Gal(b1-3)[Fuc(a1-4)]GlcNAc(b1-3)Gal(b1-4)[Fuc(a1-3)]GlcNAc
Outline: as §1

[7] = target: Gal(b1-3)[Fuc(a1-4)]GlcNAc(b1-6)GalNAc
Outline: as §1

[8] = target: Gal(b1-3)[GlcNAc(b1-6)]GalNAc
Outline: as §1

[9] = target: Gal(b1-3)[Neu5Ac(a2-6)]GalNAc
Outline: as §1

[10] = target: Gal(b1-3)[Neu5Ac(a2-6)]GlcNAc(b1-4)Gal(b1-4)Glc
Outline: as §1

[11] = target: Gal(b1-3)[Neu5Ac(b2-6)]GalNAc
Outline: as §1

Gal(b1-4)Gal = target: Gal(b1-4)Gal
Outline: as §1

[12] = target: Gal(b1-4)GalNAc(a1-3)[Fuc(a1-2)]Gal(b1-4)GlcNAc
Outline: as §1

[13] = target: Gal(b1-4)GalNAc(b1-3)[Fuc(a1-2)]Gal(b1-4)GlcNAc
Outline: as §1

Gal(b1-4)Glc = target: Gal(b1-4)Glc
Outline: as §1

Gal(b1-4)Glc6S = target: Gal(b1-4)Glc6S
Outline: as §1

Gal(b1-4)GlcNAc = target: Gal(b1-4)GlcNAc
Outline: as §1

[14] = target: Gal(b1-4)GlcNAc(a1-6)Gal(b1-4)GlcNAc
Outline: as §1

Gal(b1-4)GlcNAc(b1-2)Man = target: Gal(b1-4)GlcNAc(b1-2)Man
Outline: as §1

[15] = target: Gal(b1-4)GlcNAc(b1-2)Man(a1-3)Man(b1-4)GlcNAc(b1-4)GlcNAc
Outline: as §1

[16] = target: Gal(b1-4)GlcNAc(b1-2)Man(a1-3)[Gal(b1-4)GlcNAc(b1-2)Man(a1-6)]Man(b1-4)GlcNAc(b1-4)GlcNAc
Outline: as §1

[17] = target: Gal(b1-4)GlcNAc(b1-2)Man(a1-3)[Gal(b1-4)GlcNAc(b1-2)Man(a1-6)]Man(b1-4)GlcNAc(b1-4)[Fuc(a1-6)]GlcNAc
Outline: as §1

[18] = target: Gal(b1-4)GlcNAc(b1-2)Man(a1-3)[Gal(b1-4)GlcNAc(b1-2)Man(a1-6)][Gal(b1-4)GlcNAc(b1-4)]Man(b1-4)GlcNAc(b1-4)[Fuc(a1-6)]GlcNAc
Outline: as §1

[19] = target: Gal(b1-4)GlcNAc(b1-2)Man(a1-3)[Gal(b1-4)GlcNAc(b1-2)Man(a1-6)][GlcNAc(b1-4)]Man(b1-4)GlcNAc(b1-4)[Fuc(a1-6)]GlcNAc
Outline: as §1

[20] = target: Gal(b1-4)GlcNAc(b1-2)Man(a1-3)[GlcNAc(b1-2)Man(a1-6)]Man(b1-4)GlcNAc(b1-4)GlcNAc
Outline: as §1

[21] = target: Gal(b1-4)GlcNAc(b1-2)Man(a1-3)[GlcNAc(b1-4)][Gal(b1-4)GlcNAc(b1-2)Man(a1-6)]Man(b1-4)GlcNAc(b1-4)GlcNAc
Outline: as §1

[22] = target: Gal(b1-4)GlcNAc(b1-2)Man(a1-3)[Man(a1-6)]Man(b1-4)GlcNAc(b1-4)GlcNAc
Outline: as §1

[23] = target: Gal(b1-4)GlcNAc(b1-2)Man(a1-6)Man(b1-4)GlcNAc(b1-4)GlcNAc
Outline: as §1

[24] = target: Gal(b1-4)GlcNAc(b1-2)Man(a1-6)[GlcNAc(b1-2)Man(a1-3)]Man(b1-4)GlcNAc(b1-4)GlcNAc
Outline: as §1

[25] = target: Gal(b1-4)GlcNAc(b1-2)Man(a1-6)[Man(a1-3)]Man(b1-4)GlcNAc(b1-4)GlcNAc
Outline: as §1

[26] = target: Gal(b1-4)GlcNAc(b1-2)[Gal(b1-4)GlcNAc(b1-4)]Man(a1-3)[Gal(b1-4)GlcNAc(b1-2)Man(a1-6)]Man(b1-4)GlcNAc(b1-4)GlcNAc
Outline: as §1

[27] = target: Gal(b1-4)GlcNAc(b1-2)[Gal(b1-4)GlcNAc(b1-4)]Man(a1-3)[Gal(b1-4)GlcNAc(b1-2)[Gal(b1-4)GlcNAc(b1-6)]Man(a1-6)]Man(b1-4)GlcNAc(b1-4)GlcNAc
Outline: as §1

[28] = target: Gal(b1-4)GlcNAc(b1-2)[Gal(b1-4)GlcNAc(b1-4)]Man(a1-3)[GlcNAc(b1-4)][Gal(b1-4)GlcNAc(b1-2)Man(a1-6)]Man(b1-4)GlcNAc(b1-4)GlcNAc
Outline: as §1

[29] = target: Gal(b1-4)GlcNAc(b1-2)[Gal(b1-4)GlcNAc(b1-4)]Man(a1-3)[GlcNAc(b1-4)][Gal(b1-4)GlcNAc(b1-2)[Gal(b1-4)GlcNAc(b1-6)]Man(a1-6)]Man(b1-4)GlcNAc(b1-4)GlcNAc
Outline: as §1

[30] = target: Gal(b1-4)GlcNAc(b1-2)[Gal(b1-4)GlcNAc(b1-6)]Man(a1-6)[Gal(b1-4)GlcNAc(b1-2)Man(a1-3)]Man(b1-4)GlcNAc(b1-4)GlcNAc
Outline: as §1

[31] = target: Gal(b1-4)GlcNAc(b1-2)[Gal(b1-4)GlcNAc(b1-6)]Man(a1-6)[Gal(b1-4)GlcNAc(b1-2)Man(a1-3)]Man(b1-4)GlcNAc(b1-4)[Fuc(a1-6)]GlcNAc
Outline: as §1

B1: PX9961J-bvu-499-24-499 (Bacteroides vulgatus) (protein)
chain: LNTDPSTAVPSDDAIKNIDDAQVALNGIYRLASAHSYYGDNYLYYADCRGEDVQARINKGAGRRVSPYYFFDVTADDNFNITLVWNQPYKVIHQANSLIEKLDAGNAGNARPEEVARIKSEALAMRGLALFDLTRLFGMPYTLDNGASLGVPIEIQTTLEDHAPERNTVAQCYEQVLKDLNDALGGLTKEKHDAYMNYWSVKALLSRVYLYMNDNENALKCAEEVINDNGGIYRLFTHDEYPSVWGKDFNSESLFEFYFTMSEPSGGSGGEGAPMVYADNVKDWNNLILTKAYLDLLNEDPEDVRHVFPHLPENAVADTLPVAAKGQPKYLIKYPGKSGSVTDAVSTVNPQDNDLCILRLSEVYLNAAEAAFKIGNTEKALTYLNAIVTRANPAKSVTSADLSLERILKERRKELVGEGHAFFDYMRNGKSVDRSGGWHLTMPEDARVIAPSDPRVALPIPQTEIDANPNIVQNPR
- glycan array binding signal (z-score) [1]: -0.423
- glycan array binding signal (z-score) (Gal(b1-3)GlcNAc6S): -0.142
- glycan array binding signal (z-score) [2]: 0.13
- glycan array binding signal (z-score) [3]: -0.308
- glycan array binding signal (z-score) [4]: 0.26
- glycan array binding signal (z-score) [5]: 0.025
- glycan array binding signal (z-score) [6]: -0.4
- glycan array binding signal (z-score) [7]: 1.04
- glycan array binding signal (z-score) [8]: -0.15
- glycan array binding signal (z-score) [9]: -0.652
- glycan array binding signal (z-score) [10]: 0.423
- glycan array binding signal (z-score) [11]: -0.6
- glycan array binding signal (z-score) (Gal(b1-4)Gal): -0.334
- glycan array binding signal (z-score) [12]: -0.489
- glycan array binding signal (z-score) [13]: -0.283
- glycan array binding signal (z-score) (Gal(b1-4)Glc): -0.297
- glycan array binding signal (z-score) (Gal(b1-4)Glc6S): -0.153
- glycan array binding signal (z-score) (Gal(b1-4)GlcNAc): -0.41
- glycan array binding signal (z-score) [14]: 0.906
- glycan array binding signal (z-score) (Gal(b1-4)GlcNAc(b1-2)Man): 0.15
- glycan array binding signal (z-score) [15]: 0.174
- glycan array binding signal (z-score) [16]: -0.717
- glycan array binding signal (z-score) [17]: 0.741
- glycan array binding signal (z-score) [18]: -0.303
- glycan array binding signal (z-score) [19]: -0.332
- glycan array binding signal (z-score) [20]: -0.384
- glycan array binding signal (z-score) [21]: -0.908
- glycan array binding signal (z-score) [22]: 0.153
- glycan array binding signal (z-score) [23]: -0.541
- glycan array binding signal (z-score) [24]: -0.491
- glycan array binding signal (z-score) [25]: -0.135
- glycan array binding signal (z-score) [26]: -0.602
- glycan array binding signal (z-score) [27]: -0.107
- glycan array binding signal (z-score) [28]: 0.429
- glycan array binding signal (z-score) [29]: -0.467
- glycan array binding signal (z-score) [30]: 0.07
- glycan array binding signal (z-score) [31]: 0.199

Source: the supplement of paper PMC8728848
